# Reference: PMC4081100
# This is a selection; strong and weak results do not stand in their true shares. At the low end of the ranking the order means little.
# Biological target: T1, GST-ANAC092(1-285) full length (UniProt Q9FKA0)
# T1 sequence: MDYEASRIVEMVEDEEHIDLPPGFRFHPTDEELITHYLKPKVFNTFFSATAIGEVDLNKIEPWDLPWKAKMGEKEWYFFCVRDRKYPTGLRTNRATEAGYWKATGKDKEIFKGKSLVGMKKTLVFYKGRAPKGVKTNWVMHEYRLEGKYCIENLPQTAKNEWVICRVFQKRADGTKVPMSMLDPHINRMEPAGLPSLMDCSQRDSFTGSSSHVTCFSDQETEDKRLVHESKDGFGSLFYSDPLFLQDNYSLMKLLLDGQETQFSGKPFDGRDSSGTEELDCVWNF
# Experiment: universal protein binding microarray (PBM)
# Conditions: high values mean tight binding; double strand, one strand shown
row,Sequence,binding signal [E-score]
1,GACGTGTA,0.437
2,ATGTTGAC,-0.0758
3,AAGCAAAG,0.369

# Biological target: T2, GST-NAP(1-166) (UniProt O49255)
# T2 sequence: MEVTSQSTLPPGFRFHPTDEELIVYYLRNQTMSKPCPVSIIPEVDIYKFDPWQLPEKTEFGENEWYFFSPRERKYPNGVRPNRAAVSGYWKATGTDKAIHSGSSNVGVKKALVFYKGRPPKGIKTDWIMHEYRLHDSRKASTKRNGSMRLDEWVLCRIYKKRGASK
# Experiment: universal protein binding microarray (PBM)
# Conditions: high values mean tight binding; double strand, one strand shown
row,Sequence,binding signal [E-score]
1,AGGGAAAT,-0.0691
2,CAGGGAAA,0.0485
3,CACGGAAC,0.414
4,ACGGAACC,0.461
5,GTAACGTA,0.315
6,CTTGACTC,-0.0921
7,CACGCATA,0.147
8,TTAGTCAA,-0.11
9,AAAAAGTC,-0.00948
10,AAGGTCAG,-0.0648
11,AATGGTCA,-0.0978
12,ACACACGC,0.0855
13,GTTGAGTA,-0.0297
14,CTTGACCA,-0.0659
15,ATGCCGTG,0.397
16,ATTGGTCA,-0.0973
17,ACGTCACC,0.356
18,ATGTTGAC,-0.0993
19,AAGCAATC,-0.0264
20,AAATACGT,0.29

# Biological target: T3, GST-NST2(1-184) (UniProt Q9M274)
# T3 sequence: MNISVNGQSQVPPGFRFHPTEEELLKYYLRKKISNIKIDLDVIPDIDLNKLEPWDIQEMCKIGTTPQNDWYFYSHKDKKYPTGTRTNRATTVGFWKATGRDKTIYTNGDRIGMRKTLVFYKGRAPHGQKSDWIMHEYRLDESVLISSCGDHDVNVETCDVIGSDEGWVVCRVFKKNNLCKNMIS
# Experiment: universal protein binding microarray (PBM)
# Conditions: high values mean tight binding; double strand, one strand shown
row,Sequence,binding signal [E-score]
1,AGGGAAAT,0.0566
2,CAGGGAAA,-0.0228
3,CTTGACTC,-0.00185
4,CACGTTAG,0.117
5,GTATTGAC,0.0313
6,TTAGTCAA,-0.0141
7,AAGGTCAG,-0.0513
8,AATGGTCA,0.0454
9,ATGCCGTG,0.0239
10,ATTGGTCA,0.0255
11,ACGTCACC,0.237
12,ATGTTGAC,-0.0585

# Biological target: T4, GST-NTL8 NAC domain (UniProt Q9XIN7)
# T4 sequence: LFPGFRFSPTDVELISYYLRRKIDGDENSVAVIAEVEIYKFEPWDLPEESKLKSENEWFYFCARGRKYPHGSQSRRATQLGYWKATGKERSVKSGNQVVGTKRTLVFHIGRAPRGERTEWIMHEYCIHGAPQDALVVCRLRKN
# Experiment: universal protein binding microarray (PBM)
# Conditions: high values mean tight binding; double strand, one strand shown
row,Sequence,binding signal [E-score]
1,AGGGAAAT,0.406
2,CAGGGAAA,0.407
3,CACGGAAC,0.127
4,AGTTACGC,-0.0167
5,ATTGACTA,-0.0827
6,GTAACGTA,0.13
7,CTTGACTC,0.0122
8,CACGCATA,-0.101
9,CACGTTAG,-0.0227
10,GTATTGAC,-0.0495
11,TTAGTCAA,-0.00931
12,ATAGTCAA,-0.0289
13,TGCGTACA,0.0577
14,GATGCGTA,-0.0979
15,AATGGTCA,-0.062
16,ACACACGC,-0.0429
17,GTTGAGTA,-0.0774
18,TGGCGTAA,0.0386
19,CTTGACCA,-0.021
20,TACGTAAA,0.172
21,ATGCCGTG,0.0115
22,ATTGGTCA,-0.0735
23,ACGTCACC,-0.117
24,GACGTGTA,-0.151
25,ATGTTGAC,-0.188
26,AAGCAAAG,0.222
27,ACACGGTA,-0.0102
28,AAATACGT,0.101
29,TTACGCAA,0.18

# Biological target: T5, GST-SND1(1-203) (UniProt Q9LPI7)
# T5 sequence: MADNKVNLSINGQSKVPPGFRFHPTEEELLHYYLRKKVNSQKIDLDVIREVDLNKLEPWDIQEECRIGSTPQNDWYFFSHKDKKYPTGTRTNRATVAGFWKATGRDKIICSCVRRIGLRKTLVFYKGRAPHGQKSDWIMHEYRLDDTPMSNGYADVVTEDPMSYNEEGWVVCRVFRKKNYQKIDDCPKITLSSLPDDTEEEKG
# Experiment: universal protein binding microarray (PBM)
# Conditions: transcription factors of Arabidopsis thaliana; high values mean tight binding; most listed sequences are background and not binding sites; double strand, one strand shown
row,Sequence,binding signal [E-score]
1,AGGGAAAT,-0.02
2,CAGGGAAA,0.0967
3,CACGGAAC,0.0702
4,ACGGAACC,0.235
5,AGTTACGC,0.412
6,ATTGACTA,0.0106
7,GTAACGTA,0.489
8,CACGCAAG,0.404
9,CTTGACTC,-0.0166
10,CACGCATA,0.18
11,ATACGCCA,0.398
12,CACGTTAG,0.237
13,GTATTGAC,-0.0149
14,TTAGTCAA,0.0215
15,ATAGTCAA,-0.0501
16,AAAAAGTC,0.0306
17,TGCGTACA,0.393
18,ACGTAACT,0.325
19,GATGCGTA,0.415

row,Sequence,binding signal [E-score]
1,AAGGTCAG,-0.108
2,AATGGTCA,0.0101
3,ACACACGC,0.221
4,GTTGAGTA,0.419
5,TGGCGTAA,0.482
6,CTTGACCA,0.00384
7,TACGTAAA,0.43
8,ATGCCGTG,0.111
9,ATTGGTCA,0.0123
10,ACGTCACC,0.408
11,GACGTGTA,0.229
12,ATGTTGAC,-0.0689
13,AAGCAAAG,0.403
14,TTACGAAA,0.434
15,ACACGGTA,0.0105
16,AAGCAATC,0.466
17,AAATACGT,0.21
18,TTACGCAA,0.495
19,CGTACGCA,0.32
